Measured values taken from the supplement of paper PMC7826260.
This is one part of the list. The data describe in vitro nicking of single-stranded DNA by Rep domains (1 h at 37 °C, 3 µM enzyme); the outer parts of the 90-letter strands are left off. Numbers give uncut DNA relative to the enzyme-free pool, as log2; strong cutting gives strongly negative numbers. There is no active / inactive call. Reads are scaled to the total; uncut strands gain when others are lost, and binding without cutting may add a little.

How the values were obtained:
Experiment in all cases: uncleaved DNA left, log2 of reads against the no-enzyme library (log2 ratio); higher = less cleavage (more negative = more Rep cleavage of the k-mer); sequences stand for … in CTCGTCCG…ACCGGAGA
[1] = system: T1, Rep nickase domain of Muscovy duck circovirus
T1 sequence (Rep 1-111, printed without the tag): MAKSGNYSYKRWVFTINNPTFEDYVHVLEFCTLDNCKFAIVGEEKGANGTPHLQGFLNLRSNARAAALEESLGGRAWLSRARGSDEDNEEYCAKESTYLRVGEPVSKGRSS
Description: (§1)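 A pool of 90-nt single-stranded DNAs with seven random bases just before the constant AC of the nick site (name = the seven bases) was cut by 3 µM recombinant His6-SUMO-tagged Rep nickase domain (300 nM DNA, 50 mM HEPES pH 8.0, 50 mM NaCl, 1 mM MnCl2, 1 h, 37 °C, three replicates). Uncut DNA was amplified and sequenced.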

[2] = system: T2, Rep nickase domain of banana bunchy top virus
T2 sequence (Rep 1-94, printed without the tag): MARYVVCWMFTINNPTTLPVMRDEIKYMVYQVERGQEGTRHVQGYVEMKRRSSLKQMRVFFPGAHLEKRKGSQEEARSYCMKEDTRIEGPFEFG
Description: as §1

[3] = system: T3, Rep nickase domain of cabbage leaf curl virus
T3 sequence (Rep 1-116, printed without the tag): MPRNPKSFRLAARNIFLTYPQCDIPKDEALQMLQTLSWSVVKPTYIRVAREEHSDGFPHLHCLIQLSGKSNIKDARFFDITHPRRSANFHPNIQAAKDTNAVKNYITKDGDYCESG
Description: as §1

[4] = system: T4, Rep nickase domain of chickpea chlorotic dwarf virus
T4 sequence (Rep 1-124, printed without the tag): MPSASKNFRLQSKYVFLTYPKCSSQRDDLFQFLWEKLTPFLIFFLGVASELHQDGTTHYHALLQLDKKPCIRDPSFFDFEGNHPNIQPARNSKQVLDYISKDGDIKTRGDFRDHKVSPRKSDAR
Description: as §1

[5] = system: T5, Rep nickase domain of faba bean necrotic yellows virus
T5 sequence (Rep 1-98, printed without the tag): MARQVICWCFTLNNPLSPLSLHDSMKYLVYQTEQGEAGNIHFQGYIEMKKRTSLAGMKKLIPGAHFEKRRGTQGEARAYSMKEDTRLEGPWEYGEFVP
Description: as §1

[6] = system: T6, Rep nickase domain of maize striate mosaic virus
T6 sequence (Rep 1-117, printed without the tag): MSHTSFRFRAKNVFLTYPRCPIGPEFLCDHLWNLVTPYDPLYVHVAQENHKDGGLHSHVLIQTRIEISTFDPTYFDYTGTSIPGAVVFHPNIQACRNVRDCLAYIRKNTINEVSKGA
Description: as §1

[7] = system: T7, Rep nickase domain of porcine circovirus 2
T7 sequence (Rep 2-116, printed without the tag): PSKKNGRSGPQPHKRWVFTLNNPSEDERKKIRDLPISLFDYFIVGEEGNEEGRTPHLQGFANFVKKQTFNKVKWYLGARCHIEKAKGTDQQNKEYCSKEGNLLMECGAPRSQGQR
Description: as §1

[8] = system: T8, Rep nickase domain of tomato golden mosaic virus
T8 sequence (Rep 1-124, printed without the tag): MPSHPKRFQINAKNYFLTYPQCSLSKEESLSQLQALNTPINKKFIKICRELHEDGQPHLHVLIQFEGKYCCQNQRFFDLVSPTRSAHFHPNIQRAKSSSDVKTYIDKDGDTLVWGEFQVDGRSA
Description: as §1

[9] = system: T9, Rep nickase domain of tomato yellow leaf curl virus
T9 sequence (Rep 1-136, printed without the tag): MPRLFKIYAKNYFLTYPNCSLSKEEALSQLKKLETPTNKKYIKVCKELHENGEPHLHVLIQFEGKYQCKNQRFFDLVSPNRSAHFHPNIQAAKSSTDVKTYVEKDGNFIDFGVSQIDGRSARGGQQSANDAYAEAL
Description: as §1

[10] = system: T10, Rep nickase domain of wheat dwarf virus
T10 sequence (Rep 1-137, printed without the tag): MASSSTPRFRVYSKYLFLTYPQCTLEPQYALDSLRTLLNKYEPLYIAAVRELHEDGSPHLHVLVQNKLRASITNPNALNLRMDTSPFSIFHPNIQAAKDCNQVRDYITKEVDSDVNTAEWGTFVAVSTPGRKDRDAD
Description: as §1

AGTCCAA
uncleaved DNA left (log2) [1]: 0.104 | uncleaved DNA left (log2) [2]: 0.118 | uncleaved DNA left (log2) [3]: 0.332 | uncleaved DNA left (log2) [4]: 0.59 | uncleaved DNA left (log2) [5]: 0.0515 | uncleaved DNA left (log2) [6]: 0.14 | uncleaved DNA left (log2) [7]: -0.984 | uncleaved DNA left (log2) [8]: 0.098 | uncleaved DNA left (log2) [9]: 0.08 | uncleaved DNA left (log2) [10]: 0.261

GCCACCA
uncleaved DNA left (log2) [1]: 0.0127 | uncleaved DNA left (log2) [2]: 0.0339 | uncleaved DNA left (log2) [3]: 0.096 | uncleaved DNA left (log2) [4]: -0.31 | uncleaved DNA left (log2) [5]: 0.0846 | uncleaved DNA left (log2) [6]: 0.215 | uncleaved DNA left (log2) [7]: -0.186 | uncleaved DNA left (log2) [8]: 0.0335 | uncleaved DNA left (log2) [9]: 0.0984 | uncleaved DNA left (log2) [10]: 0.0858

AAACTAC
uncleaved DNA left (log2) [1]: 0.0513 | uncleaved DNA left (log2) [2]: 0.0188 | uncleaved DNA left (log2) [3]: -0.343 | uncleaved DNA left (log2) [4]: -2.74 | uncleaved DNA left (log2) [5]: 0.0903 | uncleaved DNA left (log2) [6]: -0.621 | uncleaved DNA left (log2) [7]: 0.0649 | uncleaved DNA left (log2) [8]: 0.137 | uncleaved DNA left (log2) [9]: -0.00182 | uncleaved DNA left (log2) [10]: 0.0535

TTCCACT
uncleaved DNA left (log2) [1]: -0.0262 | uncleaved DNA left (log2) [2]: -0.0323 | uncleaved DNA left (log2) [3]: 0.136 | uncleaved DNA left (log2) [4]: -2.18 | uncleaved DNA left (log2) [5]: -0.151 | uncleaved DNA left (log2) [6]: -0.236 | uncleaved DNA left (log2) [7]: -0.304 | uncleaved DNA left (log2) [8]: -0.147 | uncleaved DNA left (log2) [9]: -0.0596 | uncleaved DNA left (log2) [10]: -0.0326

CACCGGT
uncleaved DNA left (log2) [1]: 0.082 | uncleaved DNA left (log2) [2]: -0.00401 | uncleaved DNA left (log2) [3]: 0.203 | uncleaved DNA left (log2) [4]: 0.234 | uncleaved DNA left (log2) [5]: 0.00141 | uncleaved DNA left (log2) [6]: 0.317 | uncleaved DNA left (log2) [7]: 0.161 | uncleaved DNA left (log2) [8]: 0.0376 | uncleaved DNA left (log2) [9]: -0.12 | uncleaved DNA left (log2) [10]: 0.0948

CTGTCGA
uncleaved DNA left (log2) [1]: 0.126 | uncleaved DNA left (log2) [2]: 0.0532 | uncleaved DNA left (log2) [3]: -0.753 | uncleaved DNA left (log2) [4]: -0.656 | uncleaved DNA left (log2) [5]: 0.0357 | uncleaved DNA left (log2) [6]: -0.942 | uncleaved DNA left (log2) [7]: 0.111 | uncleaved DNA left (log2) [8]: -0.0427 | uncleaved DNA left (log2) [9]: -0.0808 | uncleaved DNA left (log2) [10]: -0.104

GCTTGGA
uncleaved DNA left (log2) [1]: -0.0855 | uncleaved DNA left (log2) [2]: -0.0959 | uncleaved DNA left (log2) [3]: 0.0883 | uncleaved DNA left (log2) [4]: 0.39 | uncleaved DNA left (log2) [5]: -0.125 | uncleaved DNA left (log2) [6]: 0.0652 | uncleaved DNA left (log2) [7]: -0.00292 | uncleaved DNA left (log2) [8]: -0.0617 | uncleaved DNA left (log2) [9]: 0.0554 | uncleaved DNA left (log2) [10]: -0.102

GATAATT
uncleaved DNA left (log2) [1]: -0.034 | uncleaved DNA left (log2) [2]: -0.996 | uncleaved DNA left (log2) [3]: 0.426 | uncleaved DNA left (log2) [4]: -1.76 | uncleaved DNA left (log2) [5]: -0.0546 | uncleaved DNA left (log2) [6]: 1.23 | uncleaved DNA left (log2) [7]: -2.43 | uncleaved DNA left (log2) [8]: 0.0368 | uncleaved DNA left (log2) [9]: 0.236 | uncleaved DNA left (log2) [10]: 0.213

CTACATG
uncleaved DNA left (log2) [1]: 0.0153 | uncleaved DNA left (log2) [2]: -0.0406 | uncleaved DNA left (log2) [3]: -0.806 | uncleaved DNA left (log2) [4]: -1.07 | uncleaved DNA left (log2) [5]: -0.0941 | uncleaved DNA left (log2) [6]: -1.14 | uncleaved DNA left (log2) [7]: 0.0259 | uncleaved DNA left (log2) [8]: -0.0469 | uncleaved DNA left (log2) [9]: -0.13 | uncleaved DNA left (log2) [10]: -0.195

GTCTTTA
uncleaved DNA left (log2) [1]: -0.0606 | uncleaved DNA left (log2) [2]: -0.00318 | uncleaved DNA left (log2) [3]: 0.26 | uncleaved DNA left (log2) [4]: 0.775 | uncleaved DNA left (log2) [5]: -0.0229 | uncleaved DNA left (log2) [6]: 1.66 | uncleaved DNA left (log2) [7]: -0.0583 | uncleaved DNA left (log2) [8]: 0.069 | uncleaved DNA left (log2) [9]: -0.0784 | uncleaved DNA left (log2) [10]: -0.0602

GGCGGGT
uncleaved DNA left (log2) [1]: 0.121 | uncleaved DNA left (log2) [2]: -0.0037 | uncleaved DNA left (log2) [3]: 0.291 | uncleaved DNA left (log2) [4]: 0.746 | uncleaved DNA left (log2) [5]: -0.0278 | uncleaved DNA left (log2) [6]: 1.49 | uncleaved DNA left (log2) [7]: 0.113 | uncleaved DNA left (log2) [8]: -0.0463 | uncleaved DNA left (log2) [9]: -0.0621 | uncleaved DNA left (log2) [10]: -0.0172

GGGATGT
uncleaved DNA left (log2) [1]: -0.0382 | uncleaved DNA left (log2) [2]: 0.0533 | uncleaved DNA left (log2) [3]: 0.914 | uncleaved DNA left (log2) [4]: 1.97 | uncleaved DNA left (log2) [5]: -0.00619 | uncleaved DNA left (log2) [6]: 2.25 | uncleaved DNA left (log2) [7]: 0.19 | uncleaved DNA left (log2) [8]: -0.0277 | uncleaved DNA left (log2) [9]: -0.057 | uncleaved DNA left (log2) [10]: 0.0409

CCCCGGG
uncleaved DNA left (log2) [1]: -0.121 | uncleaved DNA left (log2) [2]: -0.0329 | uncleaved DNA left (log2) [3]: 0.226 | uncleaved DNA left (log2) [4]: 0.323 | uncleaved DNA left (log2) [5]: -0.149 | uncleaved DNA left (log2) [6]: -0.051 | uncleaved DNA left (log2) [7]: -0.0143 | uncleaved DNA left (log2) [8]: 0.0295 | uncleaved DNA left (log2) [9]: 0.0268 | uncleaved DNA left (log2) [10]: -0.000754

GCTTATG
uncleaved DNA left (log2) [1]: -0.0438 | uncleaved DNA left (log2) [2]: -0.06 | uncleaved DNA left (log2) [3]: -0.273 | uncleaved DNA left (log2) [4]: -0.0355 | uncleaved DNA left (log2) [5]: -0.0312 | uncleaved DNA left (log2) [6]: -0.692 | uncleaved DNA left (log2) [7]: 0.0267 | uncleaved DNA left (log2) [8]: -0.0398 | uncleaved DNA left (log2) [9]: -0.0502 | uncleaved DNA left (log2) [10]: -0.0845

GCTCTCG
uncleaved DNA left (log2) [1]: -0.104 | uncleaved DNA left (log2) [2]: -0.0171 | uncleaved DNA left (log2) [3]: -0.697 | uncleaved DNA left (log2) [4]: -0.336 | uncleaved DNA left (log2) [5]: 0.0899 | uncleaved DNA left (log2) [6]: -0.831 | uncleaved DNA left (log2) [7]: 0.201 | uncleaved DNA left (log2) [8]: 0.00875 | uncleaved DNA left (log2) [9]: 0.0141 | uncleaved DNA left (log2) [10]: -0.0132
